Reference: patent publication US20220233553A1, “CELLULAR SENESCENCE ACTIVATING COMPOUNDS” (UNIVERSIDAD NACIONAL AUTONOMA DE MEXICO, priority 2019, published 2022)

Test system: HCT-116 cell xenotransplantation
Experiment: Cell morphology in tumor tissues (hematoxylin-eosin, DAPI)
Conditions: tumor tissues of treated mice vs control group

For `CC1(C)C(=O)CC[C@]23C[C@]24CC[C@]2(C)C([C@]5(C)CC[C@H](C(C)(C)O)O5)[C@@H](O)C[C@@]2(C)C4CCC13` (stereo partly shown) [In, Argentantine A], which “cell morphology in tumor tissues stained with hematoxylin-eosin” value is on record?
Its value is “slightly elongated nuclei and greater space between them”.
